Test results reported in patent publication US8067379B2, “Sulfur compounds as inhibitors of hepatitis C virus NS3 serine protease” (Schering Corporation, priority 2004, dated 2011).

molecular target: Recombinant heterodimeric HCV NS3/NS4A protease (strain 1a) (Hepatitis C virus genotype 1a, UniProt P27958); experiment: Spectrophotometric assay for HCV serine protease inhibitory activity (chromogenic ester substrates); type: biochemical; conditions: Table 3A; class symbols; read-out: Ki* Range

| SMILES | Ki |
| --- | --- |
| C=CCNC(=O)C(=O)[C@H](CC1CC1)NC(=O)[C@@H]1[C@@H]2[C@H](CN1C(=O)[C@@H](NC(=O)NC1([C@@H]3CCS3(=O)=O)CCCCC1)C(C)(C)C)C2(C)C [Compound 868] | < 75 nM |
| CCC[C@H](NC(=O)[C@@H]1[C@@H]2[C@H](CN1C(=O)[C@@H](NC(=O)NC1([C@@H]3CCS3(=O)=O)CCCCC1)C(C)(C)C)C2(C)C)C(=O)C(=O)NC1CC1 [Compound 869] | < 75 nM |
| C=CCNC(=O)C(=O)[C@H](CCC1CC1)NC(=O)[C@@H]1[C@@H]2[C@H](CN1C(=O)[C@@H](NC(=O)NC1(C3CCCCS3(=O)=O)CCCCC1)C(C)(C)C)C2(C)C (some centres unmarked) [Compound 870] | < 75 nM |
| C=CCNC(=O)C(=O)[C@H](CCC1CC1)NC(=O)[C@@H]1[C@@H]2[C@H](CN1C(=O)[C@@H](NC(=O)NC1([C@H]3CCCS3(=O)=O)CCCCC1)C1(C)CCCCC1)C2(C)C [Compound 871] | < 75 nM |
| C=CCNC(=O)C(=O)[C@H](CCC1CC1)NC(=O)[C@@H]1[C@@H]2[C@H](CN1C(=O)[C@@H](NC(=O)NC1([C@@H]3CCCS3(=O)=O)CCCCC1)C1(C)CCCCC1)C2(C)C [Compound 872] | < 75 nM |
| C#CCNC(=O)C(=O)[C@H](CCC1CC1)NC(=O)[C@@H]1[C@@H]2[C@H](CN1C(=O)[C@@H](NC(=O)NC1(CS(=O)(=O)CCC(C)C)CCCCC1)C(C)(C)C)C2(C)C [Compound 873] | < 75 nM |
| C=CCNC(=O)C(=O)[C@H](CCC1CC1)NC(=O)[C@@H]1[C@@H]2[C@H](CN1C(=O)[C@@H](NC(=O)NC1(CS(=O)(=O)CCC(C)C)CCCCC1)C(C)(C)C)C2(C)C [Compound 874] | < 75 nM |
| C=CCNC(=O)C(=O)[C@H](CCC)NC(=O)[C@@H]1[C@@H]2[C@H](CN1C(=O)[C@@H](NC(=O)NC1(C3COCCS3(=O)=O)CCCCC1)C1CCCCC1)C2(C)C (some centres unmarked) [Compound 875] | < 75 nM |
| CC1([C@H](NC(=O)NC2(CS(=O)(=O)C(C)(C)CF)CCCCC2)C(=O)N2C[C@H]3[C@@H]([C@H]2C(=O)N[C@@H](CCC2CC2)C(=O)C(=O)NC2CC2)C3(C)C)CCCCC1 [Compound 876] | < 75 nM |
| C=CCNC(=O)C(=O)[C@H](CCC1CC1)NC(=O)[C@@H]1[C@@H]2[C@H](CN1C(=O)[C@@H](NC(=O)NC1(CS(=O)(=O)C(C)(C)CF)CCCCC1)C1(C)CCCCC1)C2(C)C [Compound 877] | < 75 nM |
| C=CCNC(=O)C(=O)[C@H](CCCC)NC(=O)[C@@H]1[C@@H]2[C@H](CN1C(=O)[C@@H](NC(=O)NC1(CS(=O)(=O)C(C)(C)CF)CCCCC1)C1(C)CCCCC1)C2(C)C [Compound 878] | < 75 nM |
| CCCC[C@H](NC(=O)[C@@H]1[C@@H]2[C@H](CN1C(=O)[C@@H](NC(=O)NC1(CS(=O)(=O)C(C)(C)CF)CCCCC1)C1(C)CCCCC1)C2(C)C)C(=O)C(=O)NC1CC1 [Compound 879] | < 75 nM |
| CCC[C@H](NC(=O)[C@@H]1[C@@H]2[C@H](CN1C(=O)[C@@H](NC(=O)NC1([C@H]3CCCS3(=O)=O)CCCCC1)C1(C)CCCCC1)C2(C)C)C(=O)C(=O)NC1CC1 [Compound 880] | < 75 nM |
| CCC[C@H](NC(=O)[C@@H]1[C@@H]2[C@H](CN1C(=O)[C@@H](NC(=O)NC1([C@@H]3CCCS3(=O)=O)CCCCC1)C1(C)CCCCC1)C2(C)C)C(=O)C(=O)NC1CC1 [Compound 881] | < 75 nM |
| CC(C)(C)[C@H](NC(=O)NC1(CS(=O)(=O)C2(C)CCOCC2)CCCCC1)C(=O)N1C[C@H]2[C@@H]([C@H]1C(=O)N[C@@H](CCC1CC1)C(=O)C(=O)NC1CC1)C2(C)C [Compound 882] | < 75 nM |
| C=CCNC(=O)C(=O)[C@@H](CCC1CC1)NC(=O)[C@@H]1[C@@H]2[C@H](CN1C(=O)[C@@H](NC(=O)NC1(CS(=O)(=O)C(C)(C)C)CCCCC1)C1(C)CCCCC1)C2(C)C [Compound 883-a] | 75 to 250 nM |
| C=CCNC(=O)C(=O)[C@H](CCC1CC1)NC(=O)[C@@H]1[C@@H]2[C@H](CN1C(=O)[C@@H](NC(=O)NC1(CS(=O)(=O)C3(C)CCOCC3)CCCCC1)C(C)(C)C)C2(C)C [Compound 883-ab] | < 75 nM |
| C=CCNC(=O)C(=O)[C@H](CC1CC1)NC(=O)[C@@H]1[C@@H]2[C@H](CN1C(=O)[C@@H](NC(=O)NC1([C@H]3CCCS3(=O)=O)CCCCC1)C1(C)CCCCC1)C2(C)C [Compound 883-ad] | < 75 nM |
| C=CCNC(=O)C(=O)[C@H](CC1CC1)NC(=O)[C@@H]1[C@@H]2[C@H](CN1C(=O)[C@@H](NC(=O)NC1([C@@H]3CCCS3(=O)=O)CCCCC1)C1(C)CCCCC1)C2(C)C [Compound 883-ae] | < 75 nM |
| CCCNC(=O)C(=O)[C@H](CCC)NC(=O)[C@@H]1[C@@H]2[C@H](CN1C(=O)[C@@H](NC(=O)NC1([C@H]3CCCS3(=O)=O)CCCCC1)C1(C)CCCCC1)C2(C)C [Compound 883-ah] | < 75 nM |
| CCCNC(=O)C(=O)[C@H](CCC)NC(=O)[C@@H]1[C@@H]2[C@H](CN1C(=O)[C@@H](NC(=O)NC1([C@@H]3CCCS3(=O)=O)CCCCC1)C1(C)CCCCC1)C2(C)C [Compound 883-ai] | < 75 nM |
| C=CCNC(=O)C(=O)[C@H](CC1CC1)NC(=O)[C@@H]1[C@@H]2[C@H](CN1C(=O)[C@@H](NC(=O)NC1([C@H]3CCCS3(=O)=O)CCCCC1)C1CCCCC1)C2(C)C [Compound 883-al] | < 75 nM |

| SMILES | Ki |
| --- | --- |
| CC(C)(C)[C@H](NC(=O)NC1(CS(=O)(=O)C(C)(C)C)CCCCC1)C(=O)N1C[C@H]2[C@@H]([C@H]1C(=O)N[C@@H](CCC1CC1)C(=O)C(=O)NCC1CC1)C2(C)C [Compound 883-am] | < 75 nM |
| CCCC[C@@H](NC(=O)[C@@H]1[C@@H]2[C@H](CN1C(=O)[C@@H](NC(=O)NC1(CS(=O)(=O)C(C)(C)C)CCCCC1)C(C)(C)C)C2(C)C)C(=O)C(=O)NCC [Compound 883-an] | > 250 nM |
| CCCC[C@H](NC(=O)[C@@H]1[C@@H]2[C@H](CN1C(=O)[C@@H](NC(=O)NC1(CS(=O)(=O)C(C)(C)C)CCCCC1)C(C)(C)C)C2(C)C)C(=O)C(=O)NCC [Compound 883-ao] | < 75 nM |
| CCCC[C@@H](NC(=O)[C@@H]1[C@@H]2[C@H](CN1C(=O)[C@@H](NC(=O)NC1(CS(=O)(=O)C(C)(C)C)CCCCC1)C1(C)CCCCC1)C2(C)C)C(=O)C(=O)NCC [Compound 883-ap] | 75 to 250 nM |
| CCCC[C@H](NC(=O)[C@@H]1[C@@H]2[C@H](CN1C(=O)[C@@H](NC(=O)NC1(CS(=O)(=O)C(C)(C)C)CCCCC1)C1(C)CCCCC1)C2(C)C)C(=O)C(=O)NCC [Compound 883-aq] | 75 to 250 nM |
| CC(C)(C)[C@H](NC(=O)NC1(CS(=O)(=O)C(C)(C)CN2CCCC2)CCCCC1)C(=O)N1C[C@H]2[C@@H]([C@H]1C(=O)N[C@@H](CCC1CC1)C(=O)C(=O)NC1CC1)C2(C)C [Compound 883-ar] | < 75 nM |
| CCCC[C@H](NC(=O)[C@@H]1[C@@H]2[C@H](CN1C(=O)[C@@H](NC(=O)NC1(CS(=O)(=O)C(C)(C)CN3CCCC3)CCCCC1)C(C)(C)C)C2(C)C)C(=O)C(=O)NC1CC1 [Compound 883-as] | < 75 nM |
| C=CCNC(=O)C(=O)[C@H](CCCC)NC(=O)[C@@H]1[C@@H]2[C@H](CN1C(=O)[C@@H](NC(=O)NC1(CS(=O)(=O)C(C)(C)CN3CCCC3)CCCCC1)C(C)(C)C)C2(C)C [Compound 883-at] | < 75 nM |
| C=CCNC(=O)C(=O)[C@H](CCCC)NC(=O)[C@@H]1[C@@H]2[C@H](CN1C(=O)[C@@H](NC(=O)NC1([C@@H]3CCCS3(=O)=O)CCCCC1)C1CCCCC1)C2(C)C [Compound 883-au] | < 75 nM |
| C=CCNC(=O)C(=O)[C@H](CCC1CC1)NC(=O)[C@@H]1[C@@H]2[C@H](CN1C(=O)[C@@H](NC(=O)NC1([C@@H]3CCCS3(=O)=O)CCCCC1)C1CCCCC1)C2(C)C [Compound 883-av] | < 75 nM |
| C=CCNC(=O)C(=O)[C@H](CCC1CC1)NC(=O)[C@@H]1[C@@H]2[C@H](CN1C(=O)[C@@H](NC(=O)NC1(CS(=O)(=O)C3(CO)CCCCC3)CCCCC1)C1(C)CCCCC1)C2(C)C [Compound 883-aw] | < 75 nM |
| C=CCNC(=O)C(=O)[C@H](CC1CC1)NC(=O)[C@@H]1[C@@H]2[C@H](CN1C(=O)[C@@H](NC(=O)NC1(CS(=O)(=O)C3(CO)CCCCC3)CCCCC1)C1(C)CCCCC1)C2(C)C [Compound 883-ax] | < 75 nM |
| C=CCNC(=O)C(=O)[C@H](CCCC)NC(=O)[C@@H]1[C@@H]2[C@H](CN1C(=O)[C@@H](NC(=O)NC1(CS(=O)(=O)C3(CO)CCCCC3)CCCCC1)C1(C)CCCCC1)C2(C)C [Compound 883-ay] | < 75 nM |
| CCNC(=O)C(=O)[C@H](CCC1CC1)NC(=O)[C@@H]1[C@@H]2[C@H](CN1C(=O)[C@@H](NC(=O)NC1(CS(=O)(=O)C(C)(C)C)CCCCC1)C(C)(C)C)C2(C)C [Compound 883-az] | < 75 nM |
| C=CCNC(=O)C(=O)[C@H](CCC1CC1)NC(=O)[C@@H]1[C@@H]2[C@H](CN1C(=O)[C@@H](NC(=O)NC1(CS(=O)(=O)C(C)(C)C)CCCCC1)C1(C)CCCCC1)C2(C)C [Compound 883-b] | < 75 nM |
| CNC(=O)C(=O)[C@H](CCC1CC1)NC(=O)[C@@H]1[C@@H]2[C@H](CN1C(=O)[C@@H](NC(=O)NC1(CS(=O)(=O)C(C)(C)C)CCCCC1)C(C)(C)C)C2(C)C [Compound 883-ba] | < 75 nM |
| CNC(=O)C(=O)[C@H](CCC1CC1)NC(=O)[C@@H]1[C@@H]2[C@H](CN1C(=O)[C@@H](NC(=O)NC1(CS(=O)(=O)C(C)(C)C)CCCCC1)C1(C)CCCCC1)C2(C)C [Compound 883-bb] | < 75 nM |
| CCCNC(=O)C(=O)[C@H](CCC1CC1)NC(=O)[C@@H]1[C@@H]2[C@H](CN1C(=O)[C@@H](NC(=O)NC1(CS(=O)(=O)C(C)(C)C)CCCCC1)C(C)(C)C)C2(C)C [Compound 883-bc] | < 75 nM |
| C=C(F)CNC(=O)C(=O)[C@H](CCC1CC1)NC(=O)[C@@H]1[C@@H]2[C@H](CN1C(=O)[C@@H](NC(=O)NC1(CS(=O)(=O)C(C)(C)C)CCCCC1)C1(C)CCCCC1)C2(C)C [Compound 883-be] | < 75 nM |
| C=CCNC(=O)C(=O)[C@H](CCC)NC(=O)[C@@H]1[C@@H]2[C@H](CN1C(=O)[C@@H](NC(=O)NC1(C3COCCS3(=O)=O)CCCCC1)C(C)(C)C)C2(C)C (some centres unmarked) [Compound 883-bf] | < 75 nM |
| CCCC[C@@H](NC(=O)[C@@H]1[C@@H]2[C@H](CN1C(=O)[C@@H](NC(=O)NC1(CS(=O)(=O)C(C)(C)C)CCCCC1)C(C)(C)C)C2(Cl)Cl)C(=O)C(=O)NCC [Compound 883-bg] | 75 to 250 nM |
| CCCC[C@H](NC(=O)[C@@H]1[C@@H]2[C@H](CN1C(=O)[C@@H](NC(=O)NC1(CS(=O)(=O)C(C)(C)C)CCCCC1)C(C)(C)C)C2(Cl)Cl)C(=O)C(=O)NCC [Compound 883-bh] | < 75 nM |
